Paper PMC4336329 (PLoS ONE, 2015)
The whole screen tested about 310,000 compounds, of which about 2,200 (0.71%) showed an effect of 50% or more. Effects have a minus sign here. The list shows a part of the results.

target: human ether-à-go-go-related gene (hERG) potassium channel (human, UniProt Q12809); assay: primary screen, population patch clamp on CHO cells stably expressing hERG
Sequence (Q12809 whole entry, looked up): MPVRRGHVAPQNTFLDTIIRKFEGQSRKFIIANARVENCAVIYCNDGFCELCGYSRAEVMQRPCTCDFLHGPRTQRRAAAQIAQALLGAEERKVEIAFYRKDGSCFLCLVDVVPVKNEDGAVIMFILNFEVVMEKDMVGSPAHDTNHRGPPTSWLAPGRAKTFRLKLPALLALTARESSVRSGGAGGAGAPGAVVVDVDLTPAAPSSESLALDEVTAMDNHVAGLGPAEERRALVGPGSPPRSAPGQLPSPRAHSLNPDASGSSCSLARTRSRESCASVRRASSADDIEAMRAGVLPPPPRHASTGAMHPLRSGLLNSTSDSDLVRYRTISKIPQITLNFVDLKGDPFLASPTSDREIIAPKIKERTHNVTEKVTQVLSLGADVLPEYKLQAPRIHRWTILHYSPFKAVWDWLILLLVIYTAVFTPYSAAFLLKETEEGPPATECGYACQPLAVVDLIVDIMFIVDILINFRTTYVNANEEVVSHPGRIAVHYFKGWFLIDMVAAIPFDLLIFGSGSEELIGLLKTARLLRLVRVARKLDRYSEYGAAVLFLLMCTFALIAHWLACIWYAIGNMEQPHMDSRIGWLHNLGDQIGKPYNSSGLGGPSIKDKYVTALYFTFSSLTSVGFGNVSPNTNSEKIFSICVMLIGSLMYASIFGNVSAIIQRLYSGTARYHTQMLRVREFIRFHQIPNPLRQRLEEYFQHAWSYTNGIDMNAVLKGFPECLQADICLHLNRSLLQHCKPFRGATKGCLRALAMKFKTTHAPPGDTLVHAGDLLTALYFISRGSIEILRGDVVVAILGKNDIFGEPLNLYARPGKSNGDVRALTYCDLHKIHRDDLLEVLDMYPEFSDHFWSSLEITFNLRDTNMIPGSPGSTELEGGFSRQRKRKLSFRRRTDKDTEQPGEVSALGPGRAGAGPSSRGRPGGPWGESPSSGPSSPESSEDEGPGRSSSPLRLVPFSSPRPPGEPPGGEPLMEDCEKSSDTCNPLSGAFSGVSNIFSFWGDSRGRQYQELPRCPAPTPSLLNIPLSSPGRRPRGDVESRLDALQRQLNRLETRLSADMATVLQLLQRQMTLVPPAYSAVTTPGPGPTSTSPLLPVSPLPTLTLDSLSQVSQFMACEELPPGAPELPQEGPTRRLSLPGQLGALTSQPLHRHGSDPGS

| SMILES | hERG current change (%, negative = inhibition) at 1uM |
| --- | --- |
| CC1(C)CC(=O)C2=C(C1)NC1=C(C(=O)c3ccccc31)C2c1ccccc1 (stereo not drawn) | 1.46% |
| O=C(COC(=O)C12CC3CC(CC(Br)(C3)C1)C2)Nc1ccc2[nH]c(=O)[nH]c2c1 | -4.07% |
| COCOc1ccc(-c2cc(=O)c3c(O)cc(OCOC)cc3o2)cc1 | 7.27% |
| CCCCN1C(=O)C(O)(CC(=O)c2ccco2)c2cc(Br)ccc21 (stereo not drawn) | 14.6% |
| O=C(O)CCCNS(=O)(=O)c1cccc2nsnc12 | 15.2% |
| Cc1ccc(S(=O)(=O)NC(=O)Nc2cc(C)ccc2F)cc1 | 6% |
| CN(C)CCSc1nc(-c2ccccc2)nc2c1COC(C)(C)C2 | -37.8% |
| Nc1scc2c(C(=O)O)nn(-c3ccccc3)c(=O)c12 | 10.6% |
| C[C@@H](NC(=O)c1[nH]cnc1C(=O)Nc1nccs1)c1ccccc1 | -1.77% |
| O=C(Nc1ccccc1)c1cn2ccccc2n1 | 6.81% |
| CC(C)C(=O)NC(C)C(c1cccs1)N1CCOCC1 (stereo not drawn) | 11.8% |
| NC(=O)COc1ccc(/C=N/NC(=O)C2CCCN2S(=O)(=O)c2ccc(Cl)cc2)cc1 (stereo not drawn) | 18.5% |
| O=C(O)CSc1nnc(CSc2nc3ccccc3s2)n1-c1ccccc1 | 12.8% |
| CC(C)NC(=O)CSc1nc2sccc2c(=O)n1-c1ccccc1 | 8.32% |
| O=C(COc1ccc2ccccc2c1)Nc1ccc2c3c(cccc13)CC2 | -5.81% |
| O=C(NCc1ccccc1)C1CCC(=O)N(CC2CCCCC2)C1 (stereo not drawn) | 12.6% |
| CC(C)[C@H](Nc1ccc(S(=O)(=O)N2CCOCC2)cc1[N+](=O)[O-])C(=O)OCC(=O)N(C(C)C)C(C)C | 3.36% |
| CSc1nc(N2CCOCC2)c2sccc2n1 | 13.5% |
| COCCn1c(SCc2cccnc2)nnc1-c1ccco1 | 9.53% |
| O=C(Nc1nc(-c2ccc(F)cc2)cs1)c1cccc(N2C(=O)CCC2=O)c1 | 6.1% |
| COC(=O)c1ccccc1NC(=O)Nc1cc(C(C)(C)C)on1 | 15.4% |
| CCCCOc1ccc(Cc2c(O)nc(SC)[nH]c2=O)cc1 | 16.4% |
| Cc1ccc(-c2csc(NC(=O)c3ccc([N+](=O)[O-])o3)n2)cc1 | 10.4% |

| SMILES | hERG current change (%, negative = inhibition) at 1uM |
| --- | --- |
| CC1CCCN(c2ccc(C(=O)N3CCC4(CC3)OCCO4)cc2[N+](=O)[O-])C1 (stereo not drawn) | -7.08% |
| Cc1c(C(=O)NC2CCS(=O)(=O)C2)oc2ccccc12 (stereo not drawn) | 13.2% |
| CCOc1ccc(CN(C)C(=O)c2ccc(S(=O)(=O)N(C)c3ccccc3OC)cc2)cc1 | 4.09% |
| Cc1cc(C)n(-c2ccc(Cl)c(C(=O)O)c2)n1 | 9.5% |
| COc1ccc(/C=C/C(=O)NC(=S)NNC(=O)c2cccs2)cc1 | 16.6% |
| O=C(CNC(=O)C1CCCCC1)Nc1ccc(Cl)cc1 | 11.2% |
| O=[N+]([O-])c1ccc(-c2cnc(SC(c3ccccc3)c3ccccc3)[nH]2)cc1 | 8.26% |
| CC(C)(CN1CCN(c2ccccc2)CC1)NS(=O)(=O)c1ccccc1 | 3.9% |
| CC(C)CC(NC(=O)C1CCC(C)CC1)C(=O)N1CCN(c2ccccn2)CC1 (stereo not drawn) | -17.4% |
| CCCNS(=O)(=O)c1ccc(OCC(=O)N2CCN(Cc3ccc4c(c3)OCO4)CC2)c(C)c1 | -18.6% |
| COc1ccc(C(=O)Nc2ccnn2C2CCN(C(C)CSC)CC2)cc1 (stereo not drawn) | 10.2% |
| CC1(C)CNC(=O)c2sc(N3CCOCC3)nc2C1 | 11.8% |
| O=C(Nc1cccc(O)c1)C(=O)Nc1ccccn1 | 10.1% |
| CC(=O)c1c(C)[nH]c(C(=O)OC2CCCCC2=O)c1C (stereo not drawn) | 12% |
| COC(=O)C1=C(c2ccc(C(C)=O)cc2)C[C@@H]2CC[C@H]1N2C(=O)NCCCOC(C)C | 4.47% |
| CC(C)C(=O)NCCc1nc2ccccc2n1CCOc1ccccc1 | 14% |
| COc1ccc(CCn2c(=N)c(C(=O)NC3CCCC3)cc3c(=O)n4cccc(C)c4nc32)cc1 | -79.9% |
| N#Cc1ccc(-c2ccco2)nc1SCC(=O)c1ccc(Cl)cc1 | 16.4% |
| COc1ccc(-c2c(=O)n(OC)c3ccccc3[n+]2[O-])cc1OC | 18.1% |
| Cc1ccc(C(=O)C(C)OC(=O)C2=COCCO2)cc1C (stereo not drawn) | 5.88% |
| OCCNCC(O)Cn1c2ccccc2c2ccccc21 (stereo not drawn) | 15.9% |
| Cc1c(CCC(=O)N2CCC(C(=O)O)CC2)c(=O)oc2cc3oc4c(c3cc12)CCCC4 | 6.99% |
| O=C(N/N=C/c1ccccc1)c1ccc2c(c1)OCO2 | 5.33% |

| SMILES | hERG current change (%, negative = inhibition) at 1uM |
| --- | --- |
| CCCC/C(=N\NC(=O)c1ccc(Br)o1)c1ccccc1 | 10.1% |
| COc1ccc(C(=O)OCC2CC(c3ccccc3)N(C)O2)cc1 (stereo not drawn) | 13.5% |
| Cc1cccc(NC(=O)c2ccc(Cl)c(S(=O)(=O)N3CCCCCC3)c2)n1 | -5.26% |
| COC(=O)Cc1nc(Nc2ccccc2)sc1C | 13.8% |
| O=C(c1c[nH]c2ccccc12)C(F)(F)F | 12.2% |
| CCSc1nnc2c(n1)OC=Nc1ccc(Br)cc1-2 | 4% |
| CC1CC2c3cccc(C(=O)O)c3C(=O)N2c2ccc(Cl)cc21 (stereo not drawn) | 5.28% |
| CC(=O)NCCC(=O)Nc1ccc(C(N)=O)cc1 | 15.6% |
| CC(C)CN1C(=O)c2ccc(C(=O)Nc3ccccn3)cc2C1=O | -0.242% |
| CCOC(=O)c1sc2ncnc(NCC(c3cccs3)N(C)C)c2c1C (stereo not drawn) | 8.18% |
| COc1cccc(C(=O)NCCC(=O)NCc2cc(=O)n(C)c(=O)n2C)c1 | 15.7% |
| O=C(C1=C[C@@H](C2CC2)C[C@@H](OCc2ccc(CO)cc2)O1)N1CCN(Cc2ccccc2)CC1 | 12.6% |
| CC(=O)c1ccc(N2CCN(C(=O)c3ccc4nc[nH]c4c3)CC2)cc1 | 4.15% |
| CCOC(=O)C1(CCOc2ccccc2)CCN(Cc2ccc(C)o2)CC1 | -32.8% |
| COc1cccc(N(CC(=O)NCC2CCCO2)C(=O)CCC(=O)Nc2nccs2)c1 (stereo not drawn) | 18.9% |
| C=CCn1c(-c2ccc(Cl)cc2)c[nH]c1=S | 13.5% |
| Cn1[nH]c(CSc2ccc(Cl)cc2)cc1=O | 12.1% |
| Cc1cccc(CNc2ncc(-c3cccc([N+](=O)[O-])c3)n2C)c1.O=C(O)C(=O)O | -18.3% |
| COc1cccc(NC(=O)CN(C)S(=O)(=O)/C=C/c2ccccc2)c1 | 2.44% |
| Cc1ccc(C(C)NC(=O)c2ccc3c(c2)OCO3)cc1C (stereo not drawn) | -7.59% |
| CCn1c(=O)cc(N2CCN(Cc3ccccc3)CC2)[nH]c1=O | 6.64% |
| COc1ccc(-c2cc(C(=O)Nc3ccccc3F)on2)cc1 | 9.45% |
| Br.C=CCn1c(=N)n(CC(=O)c2ccc(Br)s2)c2ccccc21 | -3.44% |

| SMILES | hERG current change (%, negative = inhibition) at 1uM |
| --- | --- |
| Cn1c(-c2ccc(F)cc2)cnc1NCc1ccc(F)cc1 | -4.84% |
| O=C(CCN1CCN(CC(=O)Nc2ccccc2Cl)CC1)Nc1ccccc1F | -54% |
| O=C(Nc1cccnc1)c1cnn2c(C(F)F)cc(C3CC3)nc12 | -13.9% |
| CCN(CC)CCN1C(=O)c2oc3ccc(F)cc3c(=O)c2C1c1ccncc1 (stereo not drawn) | 6.34% |
| COc1cc(OC)cc(N(C(=O)CNC(=O)c2cccs2)C(C(=O)NCC2CCCO2)c2ccccc2)c1 (stereo not drawn) | 5.31% |
| Cc1cccc(N/C=C(\[N+](=O)[O-])S(=O)(=O)c2ccccc2)c1 | 17.7% |
| O=C(c1ccccn1)N(Cc1cccs1)C1(C(=O)NC2CCCCC2)CCCCC1 | 12.6% |
| O=C1CCc2ccc(NC(=O)C3CC3)cc2N1 | 11% |
| Cc1ccc(NC(=O)CCS(=O)(=O)c2cccc3nonc23)c(Br)c1 | 16% |
| COc1ccc2cc(CCNC(=O)c3ccc4c(c3)OCO4)c(=O)[nH]c2c1 | 13.2% |
| CC(C)n1nnnc1SCC(=O)c1ccc2c(c1)OCCO2 | 1.09% |
| O=C(CC1c2ccccc2Oc2ccccc21)N1CCN(c2ccccn2)CC1 | 7.01% |
| Cc1ccc(N2C(=NC(=O)c3ccccc3)SC3CS(=O)(=O)CC32)cc1 (stereo not drawn) | 10.9% |
| O=C(COC(=O)/C=C/c1ccco1)NC1CCCCC1 | 8.37% |
| O=C(O)C1C2CC2CN1C(=O)c1ccc(Cl)cc1 (stereo not drawn) | 10.5% |
| Cl.c1ccc(C2NCc3ccccc3-n3cccc32)cc1 (stereo not drawn) | 3.33% |
| CN(Cc1ccccc1OCCO)CC1CCCN(CCc2ccc(Cl)cc2)C1 (stereo not drawn) | -15.8% |
| C#CCOCCOCCOCCNc1nc(N2CCOCC2)nc(N2CCN(C(=O)Cn3cc(CC(C)O)nn3)CC2)n1 (stereo not drawn) | 9.74% |
| O=C(C1CCCN(S(=O)(=O)c2cccc3nonc23)C1)N1CCN(c2ccccc2Cl)CC1 (stereo not drawn) | 14.3% |
| CC(C)CC(=O)NC(NCC1CCCO1)C(Cl)(Cl)Cl (stereo not drawn) | 4.25% |
| Cc1ccc2c(c1)CCCN2C(=O)Nc1ccc2c(c1)OCO2 | 9.05% |
